# From the supplement of paper PMC4166925
# ± gives the standard deviation of the averaged measurements. The full ranking holds about 33,000 sequences; the median of “E-score (dimensionless, -0.5 to 0.5)” is about -0.049, and the highest 2% start at about 0.37. The list shows a part of the results.
# System: T1, PmTbr T-box DNA-binding domain (GST fusion)
# T1 sequence: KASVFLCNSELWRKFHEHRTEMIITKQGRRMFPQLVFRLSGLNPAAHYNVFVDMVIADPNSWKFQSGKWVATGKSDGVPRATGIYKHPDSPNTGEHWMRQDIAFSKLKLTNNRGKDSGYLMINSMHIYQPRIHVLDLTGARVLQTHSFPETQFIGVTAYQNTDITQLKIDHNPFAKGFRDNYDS
# Assay: PBM E-score of 8-mer (E-score (dimensionless, -0.5 to 0.5)); Tbr is Tbrain of the sea star Patiria miniata (Pm) or the sea urchin Strongylocentrotus purpuratus (Sp); higher = stronger binding preference; most listed sequences are background and not binding sites
# Conditions: the construct has about 5 more residues each side
# How it was run: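 GST-fused Tbr T-box DNA-binding domains (the whole T-box plus about five flanking residues) were expressed in BL21 E. coli at 20 °C and purified by glutathione affinity chromatography. Universal Agilent oligonucleotide arrays were made double-stranded by primer extension, incubated with 200 nM protein in PBS (pH 7.5), then scanned and quantified. Every ungapped 8-mer was scored from probe intensities. The Universal PBM Analysis Suite gave each word an enrichment E-score, averaged over duplicate arrays.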
row,Sequence,PBM E-score of 8-mer
1,ACAAGGGG,0.0202 ± 0.12
2,AGGGCTTC,-0.154 ± 0.037
3,ATCAAGAT,-0.105 ± 0.0095
4,GGCCGATA,-0.0723 ± 0.084
5,GCCATTAC,-0.169 ± 0.06
6,CAGGCCCC,-0.291 ± 0.035
7,CCAATATA,-0.0877 ± 0.0097
8,CATTCCGG,-0.145 ± 0.021
9,GCTATAGC,-0.2082 ± 0.00094
10,CCCCAGTC,-0.0749 ± 0.095
11,CAGCAATA,-0.0283 ± 0.018
12,AAGCTAGG,-0.169 ± 0.051
13,GCCCTTTA,-0.3 ± 0.045
14,GCTTGTTA,-0.00297 ± 0.095
15,AATAAGCT,-0.0428 ± 0.0098
16,ACCACCAT,0.1243 ± 0.0012
17,GATTTAAA,-0.0114 ± 0.12
18,CGTCTTGC,-0.0644 ± 0.025
19,AGAATCCG,-0.0956 ± 0.045
20,AATCTTCT,-0.0826 ± 0.034
21,TCGGGAGA,-0.05273 ± 0.00029
22,CGACTAGC,0.211 ± 0.072
23,ATGCCCCA,-0.243 ± 0.014
24,CTGTCTTA,-0.0958 ± 0.0012
25,AGACACGG,0.0464 ± 0.014

row,Sequence,PBM E-score of 8-mer
1,CAAGGAGG,-0.149 ± 0.034
2,AGCCGAGA,-0.051 ± 0.027
3,GGCACCCC,0.244 ± 0.03
4,CTGCGAAG,0.198 ± 0.028
5,AACAGAGC,0.0265 ± 0.018
6,CTGTGACA,0.3356 ± 0.0016
7,ATAGACGC,-0.00834 ± 0.056
8,ATCAGGAA,-0.126 ± 0.038
9,CCGCTGCA,0.00299 ± 0.1
10,AACATCTG,0.0152 ± 0.04
11,CAACAACC,0.00279 ± 0.011
12,CTAAGTTA,-0.0438 ± 0.018
13,AAGATCAT,-0.0474 ± 0.023
14,CCTCTGAC,-0.03519 ± 0.00011
15,CGAGCCAC,0.0291 ± 0.056
16,TCCTCAGA,-0.0553 ± 0.0035
17,CGCGCAAG,0.205 ± 0.013
18,ACATTTTG,0.00324 ± 0.052
19,GTACGCTA,-0.138 ± 0.049
20,ACAGAAGA,-0.242 ± 0.047
21,CCGAATAA,-0.123 ± 0.031
22,CCACAAAG,-0.166 ± 0.0051
23,ACCCACAT,0.203 ± 0.096
24,ACGGTGTG,0.324 ± 0.012
25,CGTCTCCC,-0.166 ± 0.0041

row,Sequence,PBM E-score of 8-mer
1,AACACGCA,0.201 ± 0.028
2,AGTACAAT,-0.026 ± 0.026
3,AGACTTGA,-0.0354 ± 0.064
4,GCATGCGC,-0.108 ± 0.0061
5,TGTTGGAA,0.0995 ± 0.033
6,CATGCCCC,-0.263 ± 0.027
7,GGCTCAAC,-0.303 ± 0.062
8,TGTGCAAA,0.197 ± 0.043
9,CATATCTA,-0.213 ± 0.01
10,CCGAAATC,-0.0059 ± 0.0078
11,CGTCTTAC,-0.208 ± 0.0023
12,CCCTTACG,-0.0493 ± 0.019
13,AGCGGGTA,0.057 ± 0.052
14,AGACGCAA,-0.198 ± 0.011
15,GCAGAGGC,-0.264 ± 0.013
16,AAATAACG,0.197 ± 0.0099
17,ATCGCCTG,0.203 ± 0.019
18,CGGGCGAG,-0.166 ± 0.074
19,GGGCAGAA,0.0722 ± 0.079
20,GGATTCTA,-0.298 ± 0.041
21,CACTTTAG,0.264 ± 0.0037
22,ATTGAGAC,-0.0083 ± 0.048
23,GGATGTAA,-0.229 ± 0.0011
24,CTCGTAGC,-0.041 ± 0.014
25,ATCTGTTC,-0.0654 ± 0.027

row,Sequence,PBM E-score of 8-mer
1,AGCAGATC,-0.0345 ± 0.038
2,ATATTTGC,0.027 ± 0.032
3,ATCGCAGG,0.0806 ± 0.064
4,GAGCGTGC,0.066 ± 0.027
5,GCCAGCAC,0.158 ± 0.09
6,GTTAGGAA,-0.0202 ± 0.0087
7,TCCGGAAA,-0.161 ± 0.0091
8,CGCACCCG,0.324 ± 0.0037
9,TCGACGAA,0.037 ± 0.0028
10,ATGCCCGC,-0.0794 ± 0.062
11,CACATGAG,0.166 ± 0.027
12,TAGACGCA,-0.179 ± 0.0073
13,ACTTAAAC,-0.0238 ± 0.043
14,CAACTACC,0.0301 ± 0.007
15,CGAGCGCA,-0.0373 ± 0.017
16,AGCGAGGA,0.0341 ± 0.031
17,CCGGGCGC,0.0792 ± 0.059
18,CATGAAAG,0.0539 ± 0.074
19,CATACGGA,-0.00485 ± 0.015
20,AGGGCAAA,-0.249 ± 0.017
21,ATGTGTTC,0.156 ± 0.025
22,GCGCAAAC,0.188 ± 0.0069
23,GCTGCAAC,-0.0887 ± 0.058
24,CCGGGCGA,0.0305 ± 0.02
25,AGGACGGA,-0.29 ± 0.059

row,Sequence,PBM E-score of 8-mer
1,GCATAATA,-0.284 ± 0.049
2,AAGCAGGG,-0.0186 ± 0.012
3,ATGACACG,0.312 ± 0.017
4,AAACCGAG,-0.165 ± 0.054
5,AGCGTCGC,0.136 ± 0.0041
6,ACAATTTG,0.13 ± 0.025
7,GGTGGGGA,0.187 ± 0.091
8,AAACTGTA,-0.0465 ± 0.018
9,CACTAAAC,0.07093 ± 0.00042
10,AAACGGCG,0.071 ± 0.062
11,AGTGTAAT,0.169 ± 0.029
12,AAATATAA,-0.0204 ± 0.061
13,CCACGAGG,0.0714 ± 0.04
14,CTGTCCAC,-0.0488 ± 0.05
15,ACTACAGC,-0.075 ± 0.044
16,CCTTGCGC,0.147 ± 0.004
17,CCTACACG,-0.0773 ± 0.012
18,ACAGCAGA,-0.119 ± 0.028
19,CCAAAGGG,-0.223 ± 0.0054
20,GGACATCC,-0.177 ± 0.049
21,TTAATGAA,-0.121 ± 0.067
22,GCTTCCCA,0.0286 ± 0.02
23,CTATCAAC,0.0836 ± 0.077
24,ATATCGAT,0.0212 ± 0.035
25,AAAGCTTC,-0.197 ± 0.049

row,Sequence,PBM E-score of 8-mer
1,CTATGCTA,0.0008 ± 0.027
2,ATGTTGAC,0.142 ± 0.011
3,GAGTCTAC,-0.282 ± 0.068
4,CAGGGGGA,-0.147 ± 0.025
5,GTTTCTAA,0.01 ± 0.0033
6,CAGTGCAA,-0.065 ± 0.002
7,GGCGTTTA,-0.0165 ± 0.031
8,GTTTACTA,-0.169 ± 0.013
9,CAAATTTG,-0.0336 ± 0.084
10,TACACCCA,0.129 ± 0.046
11,ACCAGTCA,-0.00763 ± 0.01
12,ATAAATTA,0.0236 ± 0.12
13,GTTGACGA,0.211 ± 0.012
14,CACCATAC,0.0544 ± 0.0027
15,CCAATCCC,-0.0159 ± 0.014
16,CAACTCTC,0.0306 ± 0.039
17,AAGTTAAC,0.0306 ± 0.046
18,CGTATGTC,0.0273 ± 0.03
19,ACTATCTC,-0.143 ± 0.0046
20,ATCGTTAA,0.0777 ± 0.0012
21,CTATTTTA,-0.0734 ± 0.15
22,AGTGGTCC,-0.302 ± 0.016
23,CCTGGTAC,0.0451 ± 0.018
24,GTAATGTA,-0.3336 ± 0.0019
25,CCAACAAG,0.103 ± 0.017

row,Sequence,PBM E-score of 8-mer
1,CGTTACAG,-0.012 ± 0.013
2,AGGGTTCA,-0.176 ± 0.056
3,GTTACACA,0.144 ± 0.0086
4,ATAATAGG,-0.0476 ± 0.018
5,ATCATGTC,0.156 ± 0.056
6,ACTGTACT,-0.00485 ± 0.042
7,CTCTATTA,-0.0585 ± 0.07
8,CAGAGGGG,-0.178 ± 0.021
9,AAGGCTAG,-0.193 ± 0.047
10,ACCCTGTA,0.0344 ± 0.052
11,CGTTGGCC,-0.179 ± 0.023
12,CCCACGAC,0.0262 ± 0.048
13,TCGGGGAA,-0.295 ± 0.012
14,AATTGAGC,-0.221 ± 0.044
15,CCAACTCC,0.0245 ± 0.013
16,CGGGTTAG,-0.215 ± 0.036
17,AGTCCGCG,0.111 ± 0.033
18,AAGGTCAG,-0.21 ± 0.054
19,GAGTGAGC,-0.0853 ± 0.0095
20,GGGAACAA,-0.2556 ± 0.00058
21,CGAGGGAA,-0.134 ± 0.055
22,CTATTGGC,0.203 ± 0.029
